Source: PubChem BioAssay AID1347120 (National Center for Advancing Translational Sciences (NCATS), 2019)
In all, about 390,000 compounds went through this assay and about 930 (0.24%) were called active. The inconclusive results got no clear call from the source; some entries with a clear call stand among them for comparison. The call rests on the fitted dose curve; in most records, active means well fitted activation curve with a large enough effect; inconclusive means small, poorly fitted or top-dose-only effect; inactive means no such curve, though single readings can be large or run the other way. Potencies of inconclusive entries are doubtful fits and often do not repeat.

Assay: qHTS for Suppressors of FUS Proteinopathy: Primary screen using FUS-linked yeast assay; further: nearly all actives have a fitted effect of over 55% in size;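 on growth rescue (activation): plate controls were DMSO vehicle for no effect and reference control for full effect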
Settings: S. cerevisiae FUS-expressing, OD600, 24 h; Potency: growth rescue; growth rescue (activation): at 76.6 µM (top of the series)
In short: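 FUS-expressing yeast, raffinose-pregrown, induced in 2% galactose minimal medium at OD 0.005; compounds in a dilution series, 24hr at 30C. Growth restoration read as absorbance at 600 nm. CP55940 positive control, DMSO negative.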
Potency means the concentration at half of the fitted maximal effect; tags describe the fitted curve by direction and shape.

Row | SMILES | Potency | growth rescue (activation)
1 | Cc1cc(C)n(CC(O)Cn2c3ccccc3c3ccccc32)n1 (stereo not given) | inactive | 
2 | CC(=O)Nc1ccc(S(=O)(=O)Oc2ccc(/C=N/N=C3/NC(=O)C(CC(=O)O)S3)cc2)cc1 (stereo not given) | inconclusive: 50.1 µM [activator, single point] | 
3 | CCc1c(C(=O)NNC(=S)NCCc2ccccc2)csc1C | inconclusive: 5.01 µM [activator, single point] | 
4 | COc1ccccc1N1CCN(c2ncnc3sc(C(=O)NCC4CCCO4)c(C)c23)CC1 (stereo not given) | inactive | 
5 | COc1cccc(C(C(=O)NC(C)(C)C)N(Cc2ccc(C)cc2)C(=O)CCC(=O)Nc2cc(C)on2)c1OC (stereo not given) | inconclusive: 25.1 µM [activator, partial curve, poor fit] | 
6 | CCOc1ccccc1CNC(=O)Cn1c(-c2ccccc2)cc(C(C)=O)c1C | inactive | 
7 | O=C(Nc1ccc(Cl)cc1)C1CCCN(c2ncnc3c2nc2n3CCCCC2)C1 (stereo not given) | inconclusive: 22.4 µM [activator, partial curve] | 
8 | COc1cccc(Cn2c(Oc3ccccc3)nc3c2c(=O)n(C)c(=O)n3C)c1 | inconclusive: 22.4 µM [activator, partial curve] | 
9 | CC(C)COc1ccc(N)cc1OCC(C)C | inconclusive: 17.8 µM [activator, partial curve, poor fit] | 
10 | COc1ccc(C(C)(NC(C)=O)c2nc(-c3cccc(C(F)(F)F)c3)cs2)cc1 (stereo not given) | inconclusive: 28.2 µM [activator, single point] | 
11 | COc1ccc(CN2C(=O)[C@@H]3Cc4c([nH]c5ccccc45)C(C)(C)N3C2=O)cc1 | inconclusive: 22.4 µM [activator, single point] | 
12 | CCC(=O)Nc1cccc(C(=O)N(Cc2ccccc2)Cc2ccccc2)c1 | inconclusive: 35.5 µM [activator, single point] | 
13 | COc1ccc(OC)c(N(C(=O)c2snc(C(N)=O)c2N)C(C(=O)NCC2CCCO2)c2ccc3ncccc3c2)c1 (stereo not given) | inconclusive: 25.1 µM [activator, single point] | 
14 | CN(C)c1cc(-c2ccc(C#N)cc2)oc(=O)c1Cl | inactive | 
15 | O=C(CSc1cccc[n+]1[O-])c1cc(Cl)ccc1Cl | inactive | 
16 | CC(C)c1ccc2[nH]c3c(c2c1)CCC/C3=N\NC(=O)c1ccncc1 | inconclusive: 44.7 µM [activator, single point] | 
17 | Cc1ccc(Cn2nc(C)c(C(=O)N3CCN(S(=O)(=O)/C=C/c4ccccc4)CC3)c2C)cc1 | inconclusive: 14.1 µM [activator, partial curve] | 
18 | CN(C)c1ccc(C(=O)OCc2cc(=O)n3ccsc3n2)cc1 | inactive | 
19 | COc1cccc(NC(=O)CN(C)C(=O)CCc2nc3sc4c(c3c(=O)[nH]2)CCCC4)c1 | inconclusive: 2.51 µM [activator, full curve, poor fit] | 
20 | O=C(CNc1cc(S(=O)(=O)N2CCOCC2)ccc1NCC1CCCO1)Nc1ccc(C(F)(F)F)cc1 (stereo not given) | inconclusive: 50.1 µM [activator, single point] | 
21 | Cc1ccc(NC(=O)C2COc3ccccc3O2)cc1 (stereo not given) | inactive | 
22 | COc1ccc(OC)c(NC(=O)CN(C)S(=O)(=O)c2ccc(C(=O)N3CCOCC3)s2)c1 | inconclusive: 2.24 µM [activator, full curve, poor fit] | 

Row | SMILES | Potency | growth rescue (activation)
23 | Cc1ccc(-c2nnc(Nc3cccc(Cl)c3)c3ccccc23)cc1S(=O)(=O)N1CCOCC1 | inconclusive: 50.1 µM [activator, single point] | 
24 | COc1cc(OC)cc(-c2c(C#Cc3ccsc3)c3cc(-c4ccccc4OC)ccc3n2C)c1 | inconclusive: 12.6 µM [activator, partial curve, poor fit] | 
25 | CCCCCCCCN1C(=O)[C@@H](CC(=O)N2CCOCC2)C[C@@]2(C(=O)OC)C1=C[C@H](C(C)C)O[C@@H]2C1CC1 | active: 8.91 µM | 
26 | Cc1cccc(-n2c(O)c(C=Nc3ccccc3O)c3ccccc3c2=O)n1 | inactive | 
27 | Cc1ccc(-n2sc3cc(F)ccc3c2=O)c(C)c1 | inactive | 
28 | COc1ccc(Cl)cc1S(=O)(=O)N1CCN(C(=O)c2ccco2)CC1 | inactive | 
29 | C[C@@H](NC(=O)c1nc[nH]c1C(=O)NCc1ccc(CNC(=O)OC(C)(C)C)cc1)c1ccccc1 | inconclusive: 28.2 µM [activator, single point] | 
30 | COc1ccc(S(=O)(=O)c2nnn(-c3cc(Cl)c(OC)cc3OC)c2C)cc1 | inconclusive: 35.5 µM [activator, single point] | 
31 | CSCC[C@H](NC(=O)[C@H]1N2C(=O)c3ccccc3C2SC1(C)C)C(=O)NCc1ccncc1 (stereo not given in full) | inconclusive: 3.55 µM [activator, full curve] | 
32 | CCCC[C@H]1C2CC(OC(=O)Nc3cccc(Cl)c3)C(C2)[C@H]2CCCCN21 (stereo not given in full) | inactive | 
33 | Cc1ccc(Cc2c(C)nc3nc(SCC(=O)NC(C)c4ccccc4)nn3c2C)cc1 (stereo not given) | inconclusive: 35.5 µM [activator, single point] | 
34 | Cc1ccc(Cc2nc3ccccc3nc2SCC(=O)NCCC(C)C)cc1 | inactive | 
35 | O=C(CSc1n[nH]c(-c2ccccc2Cl)n1)NC1CCCCC1 |  | inconclusive: -23.6% [activator]
36 | COc1cccc2cc(C(=O)N3CC(C)OC(C)C3)c(=O)oc12 (stereo not given) | inactive | 
37 | CC1Cc2ccccc2N1CC(=O)Nc1ccc2c(c1)OCCCO2 (stereo not given) | inconclusive: 31.6 µM [activator, single point] | 
38 | CC(C(=O)OCC(=O)Nc1ccc(S(=O)(=O)N2CCCCC2)cc1)N1C(=O)c2ccccc2C1=O (stereo not given) | inconclusive: 44.7 µM [activator, partial curve, poor fit] | 
39 | O=C(Nc1ccc2c(c1)OCCO2)C1c2ccccc2OCC(=O)N1CCc1c[nH]c2ccccc12 (stereo not given) | inconclusive: 50.1 µM [activator, single point] | 
40 | CC(=O)N1CCC2(CC1)C/C(=N\NC(=S)Nc1ccccc1F)c1cc(O)ccc1O2 | inconclusive: 7.94 µM [activator, full curve, poor fit] | 
41 | CCSc1nn(CC(=O)Nc2ccc(C(=O)OC)cc2)c(N)c1S(=O)(=O)c1ccc(C)cc1 | inconclusive: 25.1 µM [activator, single point] | 
42 | O=C(NC(=S)NNC(=O)c1cnccn1)c1ccc(Cl)cc1 | inactive | 
43 | O=C1COc2ccc(-c3cc(-c4ccccc4)c4c(n3)-c3cc(Cl)ccc3OC4)cc2N1 | inactive | 
44 | O=C(CSc1ncccc1-c1nc2ccccc2[nH]1)NCc1ccco1 | inconclusive: 25.1 µM [activator, partial curve, poor fit] | 

Row | SMILES | Potency | growth rescue (activation)
45 | O=C(CC(=O)c1ccccc1O)c1ccc(F)cc1 | inactive | 
46 | O=C(O)CCCC(=O)Nc1ccc(Sc2ccc([N+](=O)[O-])cc2)cc1 |  | inconclusive: 56.3% [activator]
47 | Cc1ccc(N2CCN(S(=O)(=O)c3ccc4[nH]c5c(c4c3)CCCCC5)CC2)c(C)c1 | inconclusive: 25.1 µM [activator, single point] | 
48 | O=C(NC1CCCC1)C(c1ccncc1)N(Cc1ccco1)C(=O)c1ccc(-c2ccccc2)[nH]1 (stereo not given) | inconclusive: 50.1 µM [activator, partial curve, poor fit] | 
49 | COc1ccc(CN2C(=O)c3cccnc3C2=O)cc1S(=O)(=O)N1CCOc2ccc(C)cc21 | inconclusive: 50.1 µM [activator, single point] | 
50 | Cc1ccc(Oc2c(C(N)=O)cc([N+](=O)[O-])cc2[N+](=O)[O-])cc1 | inconclusive: 10 µM [activator, single point] | 
51 | CC(=O)Nc1nc2ccccc2n1Cc1ccc(Cl)cc1 | inactive | 
52 | CCN(C(=O)COC(=O)c1ccccc1Nc1cccc(C)c1C)C1CCS(=O)(=O)C1 (stereo not given) | inconclusive: 11.2 µM [activator, single point] | 
53 | O=C(O)COc1ccccc1/C=N/NC(=O)c1cc(-c2ccc(Cl)cc2)nc2ccccc12 | inconclusive: 22.4 µM [activator, single point] | 
54 | N#C/C(=C\C1CC2C=CC1C2)c1nc2ccccc2[nH]1 (stereo not given) | inconclusive: 28.2 µM [activator, partial curve, poor fit] | 
55 | CCOC(=O)COc1cc(OCC(=O)OCC)c2c3c(c(=O)oc2c1)CCCC3 | inactive | 
56 | COc1ccc(CCNC(=O)c2ccc3c(c2)N(Cc2ccccc2C)C(=O)c2ccccc2S3)cc1OC | inconclusive: 31.6 µM [activator, partial curve, poor fit] | 
57 | Cc1ccc(S(=O)(=O)N2CCN(C(=O)c3cc(C4CC4)nc4c3cnn4C(C)C)CC2)cc1 | inconclusive: 28.2 µM [activator, single point] | 
58 | Oc1ccc(C2C[C@H]3CC[C@@H]2C3)cc1O (stereo not given in full) | inactive | 
59 | CCSc1nnc(NC(=O)C2Cc3ccccc3CN2C(=O)c2ccco2)s1 (stereo not given) | inconclusive: 35.5 µM [activator, single point] | 
60 | O=C(COc1ccc(Cl)cc1)c1ccc(O)cc1O | inactive | 
61 | CCOc1ccc(OCC)c(NC(=O)Nc2ccc3c(c2)N(C)C(=O)CS3)c1 | inconclusive: 17.8 µM [activator, single point] | 
62 | COc1ccc(CNC(=O)c2ccc(CNS(=O)(=O)c3ccc(F)cc3)cc2)cc1 | inactive | 
63 | COC1OC(COCc2ccccc2)C(N)C(OCc2ccccc2)C1OCc1ccccc1 (stereo not given) | inconclusive: 35.5 µM [activator, partial curve, poor fit] | 
64 | C=CCn1c(SCc2nc3sc(C(=O)O)c(C)c3c(=O)[nH]2)nnc1-c1ccc(C(C)(C)C)cc1 | inconclusive: 50.1 µM [activator, single point] | 
65 | O=C(c1ccccc1)c1ccc(OCC(O)CNCc2cccc(Cl)c2)cc1 (stereo not given) | inactive | 
